Data: ChEMBL document CHEMBL4888484, “Replenishing the malaria drug discovery pipeline: Screening and hit evaluation of the MMV Hit Generation Library 1 (HGL1) against asexual blood stage Plasmodium falciparum ,using a nano luciferase reporter read-out” (2022)
The campaign covered roughly 150,000 compounds. About 540 (0.36%) showed an effect of 50% or more. This is one part of the list.

test system: Plasmodium falciparum; assay: Primary screen in NF54 nanoGlo assay, in single point, at 2uM, 72h; a lower Z score goes with more inhibition; format: functional, Erythrocyte; conditions: timepoint 72 hour

`CN1CCC[C@H](CCc2ncnn2CC(F)(F)F)C1` was tested. Which “% Inhibition” value did it give?
Its value is -11%.

What about the Z score of the same molecule?
The Z score was 1.96.

How did the “% Inhibition” value turn out when `CC=Cc1ccc(OS(=O)(=O)c2ccc3c(c2)CCC(=O)N3)c(OC)c1` was run?
Its value is -4%.

What about the Z score of the same molecule?
The Z score was 0.37.

Which results are given for `CCOCC(=O)N(CC(F)F)c1ccc(F)cc1`?
% Inhibition: -5%; Z score: 0.88

Which “% Inhibition” value does the source give for `O=C1NCCCn2cc(S(=O)(=O)N3CCN(c4ccccc4)CC3)cc21` here?
Its value is 9%.

What about the Z score of the same molecule?
Its Z score is -1.02.

Which “% Inhibition” value does the source give for `COc1nccn2c(CNC(=O)c3ccc(F)c(Cl)c3)nnc12` here?
Its value is -16%.

What about the Z score of the same molecule?
The Z score was 3.12.

How did the “% Inhibition” value turn out when `Cc1noc([C@H](C)ON=C(N)Cc2ccccc2)n1` was run?
Its value is -7%.

What about the Z score of the same molecule?
The Z score was 0.87.

How did the “% Inhibition” value turn out when `COCc1ccc(C(=O)NCCN(C)S(C)(=O)=O)s1` was run?
Its value is -2%.

What about the Z score of the same molecule?
The Z score was 0.28.

Which “% Inhibition” value does the source give for `Cn1cccc1C(=O)N1CC(Nc2ccc(F)cc2)C1` here?
The value was -13%.

And the Z score?
Its Z score is 1.72.

Which results are given for `Cc1ccc(OCC(=O)Nc2ccc(S(=O)(=O)N(Cc3ccccc3)c3ccccc3)cc2)cc1`?
% Inhibition: 19%; Z score: -2.23

With `CC(CN1C(=O)c2cc(-c3ccco3)nn2CC1(C)C(=O)NC1CCCCCC1)c1ccccc1` (stereo unspecified) as the molecule, how does the “% Inhibition” value read?
The value was 1%.

And the Z score?
Its Z score is -0.17.

`CCOC(=O)c1ccc(NC(=O)Cn2nc(-c3ccc(C)cc3)oc2=S)cc1` was tested. Which “% Inhibition” value did it give?
The value was -35%.

And the Z score?
The Z score was 4.07.

What does the source list for `Cn1cc(C(N)=O)cc1C(=O)N1CCC(C(=O)Nc2ccccc2)CC1`?
% Inhibition: -8%; Z score: 1.01

`Cc1cc(C)cc(NC(=O)CCn2c(N3CCCCC3)nc3ccccc3c2=O)c1` was tested. Which “% Inhibition” value did it give?
The value was -15%.

And the Z score?
Its Z score is 1.43.

For `CCc1noc(CC)c1Cc1nc(-c2cccc(C(=O)OC)c2)no1`, which “% Inhibition” value is on record?
Its value is -2%.

And the Z score?
The Z score was 0.36.

For `Cc1noc(C2CN(C(=O)C3CCS(=O)(=O)C3)CC2c2ccccc2)n1` (stereo unspecified), which “% Inhibition” value is on record?
Its value is 1%.

What about the Z score of the same molecule?
Its Z score is -0.11.

How did the “% Inhibition” value turn out when `COc1cc(F)c(NC(=O)CN(C)C)cc1OC` was run?
Its value is -3%.

What about the Z score of the same molecule?
The Z score was 0.46.

What does the source list for `O=C(CN1CCN(c2ccc3nc[nH]c(=O)c3n2)CC1)NC1CCCCC1`?
% Inhibition: 0%; Z score: -0.02

For `COC1CCN(c2nnc(-c3cc(C)oc3C)n2CC2CC2)CC1`, which “% Inhibition” value is on record?
The value was -3%.

And the Z score?
The Z score was 0.51.

What does the source list for `COc1ccc([C@H]2NCCc3c2[nH]c2ccccc32)cc1COc1cccc(C)c1C`?
% Inhibition: 7%; Z score: -0.96

Which results are given for `Cc1ccc(NC(=O)c2cc3nccc(-c4ccc(F)cc4)n3n2)nc1`?
% Inhibition: 32%; Z score: -0.37

How did the “% Inhibition” value turn out when `Cn1nc(-c2ccccc2)c(CN(CC2CC2)C(=O)NC(C)(C)C)c1Oc1ccccc1F` was run?
Its value is -4%.

And the Z score?
The Z score was 0.42.

Which results are given for `Cc1nc(NC2CCCCC2)sc1C(=O)NCc1cccs1`?
% Inhibition: 25%; Z score: -2.85

Which results are given for `CC(C)Oc1ncc(Cl)cc1NC(=O)N1CC[S@@+]([O-])C(C)(C)CC1`?
% Inhibition: 3%; Z score: -0.46
